# Reference: PubChem BioAssay AID2675 (National Center for Advancing Translational Sciences (NCATS), 2010)
# Screen size: about 280,000 compounds; about 100 (0.036%) were called active. Inconclusive results, whose numbers are uncertain, are shown with a selection of clear calls. Calls come from the whole dose curve; as a rule, active = well fitted inhibition curve with a large enough effect in the signal ratio, with a control signal flat (not every such curve was filed as active); inconclusive = small, poorly fitted or top-dose-only effect, or effect the other way, or a change in a side signal; inactive = no such curve, though single readings can be large or run the other way; the % refers to the signal ratio. Potencies beside an inconclusive call are fits to weak or partial responses and may not hold up. “Side channel” marks fits to a control or component signal instead of the main read-out.
# Target: Muscleblind-like protein 1 (Homo sapiens) (UniProt Q9NR56)
# UniProt Q9NR56, sequence (Q9NR56 whole entry, looked up): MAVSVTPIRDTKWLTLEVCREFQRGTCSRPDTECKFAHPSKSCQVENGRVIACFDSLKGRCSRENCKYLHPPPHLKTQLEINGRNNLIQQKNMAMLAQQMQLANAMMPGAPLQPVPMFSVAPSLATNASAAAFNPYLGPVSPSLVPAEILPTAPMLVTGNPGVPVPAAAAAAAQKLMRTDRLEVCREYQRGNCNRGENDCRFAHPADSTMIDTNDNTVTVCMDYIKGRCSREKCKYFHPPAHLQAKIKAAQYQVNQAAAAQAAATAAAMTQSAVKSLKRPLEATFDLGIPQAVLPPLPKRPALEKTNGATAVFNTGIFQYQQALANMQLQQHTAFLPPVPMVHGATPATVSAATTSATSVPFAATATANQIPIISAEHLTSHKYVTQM
# Assay: qHTS Assay for Inhibitors of MBNL1-poly(CUG) RNA binding
# Settings: TR-FRET MBNL1-His/biotin-(CUG)12 binding, 665/545 ratio; activity change, negative = inhibition: at 57.5 µM (top of the series)
# How it was run: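 Compounds (final 92 nM to 58 uM) are added to His-tagged MBNL1 and biotin-(CUG)12, then terbium anti-His antibody and streptavidin-XL665 (5 nM final). After 60 min at room temperature, the 665/545 nm ratio is read.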
# % is set by controls: 0 for no effect and ±100 for the full control effect; potency is the fitted concentration of half-maximal effect; tags give direction and shape of the fitted curve or compound fluorescence and quenching.
SMILES,Potency,"activity change, negative = inhibition"
CCCN1C/C(=C/c2cccc([N+](=O)[O-])c2)C(=O)/C(=C/c2cccc([N+](=O)[O-])c2)C1,"inconclusive: 15.8 µM [quencher, side channel, partial curve]",–
C=C(C)C(=O)Nc1cccc(C2=NOC3(C2)C[C@@H](C(N)=O)N(C(=O)c2cc([N+](=O)[O-])cc([N+](=O)[O-])c2)C3)c1 (stereo partly specified),"inconclusive: 12.6 µM [quencher, side channel, partial curve]",–
COC(=O)c1cc(C(=O)OCC(=O)N2c3ccccc3NC(=O)C2(C)C)cc([N+](=O)[O-])c1,–,inconclusive: 109% [activator]
CC1CCCCC1NC(=O)/C(C#N)=C/c1ccc(F)c(F)c1 (stereo unspecified),inactive,–
CN(C)c1ccc(C(=O)c2ccccc2C(=O)O)cc1[N+](=O)[O-],"inconclusive: 22.4 µM [quencher, single point]",–
Cn1ncc(N=Cc2ccccc2[N+](=O)[O-])c1C(N)=O,"inconclusive: 17.8 µM [quencher, side channel, partial curve]",–
CCOC(=O)c1csc(-c2ccc([N+](=O)[O-])cc2)n1,"inconclusive: 2.82 µM [quencher, side channel, full curve]",–
CCn1nnc(NC(=O)COc2ccc([N+](=O)[O-])cc2)n1,"inconclusive: 10 µM [quencher, side channel, partial curve]",–
Cc1cccnc1Nc1nc(-c2ccccn2)cs1,inactive,–
CCCN(CCC)C(=O)C1CCN(c2ccc(S(=O)(=O)N3CCOCC3)cc2[N+](=O)[O-])CC1,"inconclusive: 17.8 µM [quencher, partial curve]",–
N#C/C(=C\c1ccc(N2CCCCC2)o1)C(N)=O,"inconclusive: 6.31 µM [quencher, side channel, partial curve]",–
Cc1ccc(NC(=S)NCc2ccc(Cl)cc2)c(C)c1,inactive,–
COc1cc([N+](=O)[O-])ccc1NC(=O)Cc1ccccc1,"inconclusive: 25.1 µM [quencher, side channel, partial curve]",–
NC(=O)[C@@H]1CCCCNc2c(F)cc([N+](=O)[O-])cc2C(=O)N[C@@H](CCCN=C(N)N)C(=O)NCC(=O)N1,"inconclusive: 28.2 µM [quencher, side channel, partial curve]",–
CN1CCN(CC(=O)Nc2ccccc2[N+](=O)[O-])CC1,"inconclusive: 3.98 µM [quencher, side channel, partial curve]",–
Cc1ccnc(SC2CC(=O)N(c3ccc([N+](=O)[O-])cc3)C2=O)n1 (stereo unspecified),"inconclusive: 15.8 µM [quencher, side channel, partial curve]",–
